Each structure is given as a SMILES string. Several values for one entry are separate records, joined by “and”; a condition that tells them apart may be missing. Identical values can stand only once. In all, about 110,000 compounds went through this assay and about 230 (0.21%) showed an effect of 50% or more. This is one part of the list.
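Note: 30 min substrate incubation versus DMSO and 10 µM JCP410 controls.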

For this assay, the target named is DPAP1 (Plasmodium falciparum, UniProt Q8IIJ9). Briefly: primary screen, percent inhibition; read by cleavage of a fluorogenic dipeptide substrate; higher = more effect of the substance. Set-up: species or system P. falciparum D10 trophozoite lysates; single well.
Chain of DPAP1 (Q8IIJ9 whole entry, looked up): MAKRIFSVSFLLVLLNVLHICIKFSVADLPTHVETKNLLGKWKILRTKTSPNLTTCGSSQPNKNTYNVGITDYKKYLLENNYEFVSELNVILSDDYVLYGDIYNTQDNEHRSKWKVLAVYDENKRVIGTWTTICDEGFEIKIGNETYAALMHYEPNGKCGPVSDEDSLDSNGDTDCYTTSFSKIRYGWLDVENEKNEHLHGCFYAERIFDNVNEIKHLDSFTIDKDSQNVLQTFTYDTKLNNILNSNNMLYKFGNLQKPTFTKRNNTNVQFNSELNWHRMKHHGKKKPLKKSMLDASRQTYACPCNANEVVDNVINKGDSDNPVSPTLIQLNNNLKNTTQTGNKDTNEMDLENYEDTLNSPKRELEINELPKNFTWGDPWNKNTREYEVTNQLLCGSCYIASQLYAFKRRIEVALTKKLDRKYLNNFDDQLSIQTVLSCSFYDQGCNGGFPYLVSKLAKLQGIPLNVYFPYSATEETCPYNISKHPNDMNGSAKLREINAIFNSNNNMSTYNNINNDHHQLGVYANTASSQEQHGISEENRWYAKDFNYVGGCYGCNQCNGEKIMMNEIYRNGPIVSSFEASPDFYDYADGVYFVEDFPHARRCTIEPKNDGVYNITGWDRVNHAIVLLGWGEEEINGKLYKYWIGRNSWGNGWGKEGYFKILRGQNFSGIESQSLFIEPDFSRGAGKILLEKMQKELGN
For the compound `Cc1cc(C)c(S(=O)(=O)Nc2ccc(O)c(Cl)c2)c(C)c1`, the “% Inhibition @ 10 uM” value was -13.4%.

For the compound `O=c1ccc2cc(S(=O)(=O)N3CCC(Cc4ccccc4)CC3)ccc2o1`, the “% Inhibition @ 10 uM” value is on record as -3.07%.

`CCOC(=O)N1CCC(N2CCN(CCO)CC2)CC1`: the “% Inhibition @ 10 uM” value is -3.6%.

For the compound `Cc1c(C(=O)NC(C)C)oc2ccc3c(c12)C(=O)CC(C)(c1ccc(Cl)cc1)O3` (centres unmarked), the “% Inhibition @ 10 uM” value is recorded as -2.17%.

Regarding `Cc1oc2ncn3nc(-c4cc(-c5ccc(F)cc5)[nH]n4)nc3c2c1C`, the “% Inhibition @ 10 uM” value is 12%.

Consider `CCOC(=O)c1cnn(-c2cccc(Cl)c2)c1C1CCNCC1`, for which the “% Inhibition @ 10 uM” value is on record as -2.83%.

Regarding `O=C1/C(=C/c2ccccc2)N=C(N2CCOCC2)N1c1cccc(Cl)c1`, the “% Inhibition @ 10 uM” value is recorded as -7.11%.

Consider `COc1cc(/C=C2/NC(=O)NC2=O)cc(Cl)c1OCc1cccc(C)c1`, for which the “% Inhibition @ 10 uM” value is on record as -1.25%.

Consider `COc1ccc(Cn2c(C(=O)O)c(CNCCC3=CCCCC3)c3ccccc32)cc1`, for which the “% Inhibition @ 10 uM” value was found to be 6.94%.

As for `COc1cc(C)c(S(=O)(=O)n2c(C)nc3ccccc32)cc1C`, the “% Inhibition @ 10 uM” value stood at 2.22%.

For the compound `N#C/C(=C\c1ccc2ccccc2c1)c1nc(-c2ccc(-c3ccccc3)cc2)cs1`, the “% Inhibition @ 10 uM” value is recorded as -7.55%.

Turning to `COc1ccc(N2CCN(C(=O)CN3C(=O)c4ccccc4S3(=O)=O)CC2)cc1`, the “% Inhibition @ 10 uM” value is recorded as 8.19%.

On to `Cc1cc2nc(CSc3nc[nH]n3)cc(=O)n2o1`, for which the “% Inhibition @ 10 uM” value is -5.28%.

Regarding `COc1cccc(CN2C(=O)c3ccccc3C(C(=O)O)C2c2ccsc2)c1` (centres unmarked), the “% Inhibition @ 10 uM” value is given as -4.9%.

For `O=C(COc1ccc(Cl)cc1)Nc1ccc(S(=O)(=O)Nc2nccs2)cc1`, the “% Inhibition @ 10 uM” value worked out at 1.87%.

Consider `O=C(COc1ccccc1Cl)Nc1ccc(NC(=O)COc2ccccc2Cl)cc1`, for which the “% Inhibition @ 10 uM” value was 0.909%.

Take `O=C(/C=C/c1ccccc1Cl)Nc1cccc(C(F)(F)F)c1`: the “% Inhibition @ 10 uM” value was -1.62%.

As for `CC1CCN(C(=O)CNS(=O)(=O)c2ccc(Cl)cc2)CC1`, the “% Inhibition @ 10 uM” value is -7.45%.

`NC12CC3CC(C1)CC(CC(=O)O)(C3)C2`: the “% Inhibition @ 10 uM” value is 3.18% and 4.08%.

For `CN(C1CCCC1)C1CCN(C(=O)CNC(=O)/C=C/c2ccc(F)cc2)CC1`, the “% Inhibition @ 10 uM” value is reported as -4.71%.

`Cc1ccc(C)c(-n2c(CNC(=O)c3cccc(F)c3)nnc2SCC(=O)Nc2nccs2)c1`: the “% Inhibition @ 10 uM” value was determined as 73.7%.

`O=C(CCn1ccc2cc(S(=O)(=O)N3CCCC3)ccc21)NCCc1ccc(Cl)cc1`: the “% Inhibition @ 10 uM” value is recorded as 0.58%.

As to `Cc1cccc(NC(=O)c2ccc([N+](=O)[O-])cc2Cl)c1`, the “% Inhibition @ 10 uM” value is -2.6%.

Turning to `CC(=O)c1ccc[n+](C(=O)Cc2ccccc2)c1`, the “% Inhibition @ 10 uM” value is recorded as -1.6%.

Consider `CN1CCCN(Cc2cccc(Cl)c2Cl)CC1`, for which the “% Inhibition @ 10 uM” value was 0.847%.

In the case of `CC1CCN(c2c(S(=O)(=O)c3ccccc3)cnc3ccc(F)cc23)CC1`, the “% Inhibition @ 10 uM” value is given as -5.2%.

With `O=C(O)c1ccc(SCc2ccccc2)cn1`, the “% Inhibition @ 10 uM” value is -3.92%.

Regarding `CCOC(=O)c1sc(N2C(=O)c3oc4ccccc4c(=O)c3C2c2cccc(O)c2)nc1C` (centres unmarked), the “% Inhibition @ 10 uM” value is 0.189%.

With `O=C(c1ccncc1)c1cnc2ccccc2c1`, the “% Inhibition @ 10 uM” value stood at 6.98%.

In the case of `Cc1csc(NC(=O)c2sc3nc4c(cc3c2N)N2CCC4CC2)n1`, the “% Inhibition @ 10 uM” value is 0.895%.

For the compound `Cn1c(-c2nonc2NC(=O)c2ccc(C(C)(C)C)cc2)nc2ccccc21`, the “% Inhibition @ 10 uM” value is reported as 3.05%.

With `O=C(NCc1ccccc1)/C(O)=C/C(=O)c1ccc(Cl)cc1`, the “% Inhibition @ 10 uM” value was -2.55%.

With `NC(=O)c1c(NC(=O)COc2ccc3ccccc3c2Br)sc2c1CCCC2`, the “% Inhibition @ 10 uM” value was -2.07%.

Regarding `CC1CCN(S(=O)(=O)c2ccc3c(ccn3CC(=O)NCc3cccc(Cl)c3)c2)CC1`, the “% Inhibition @ 10 uM” value is recorded as -0.177%.

Turning to `COc1ccccc1NC(=O)c1ccc(CNS(=O)(=O)c2cccc(Cl)c2)cc1`, the “% Inhibition @ 10 uM” value is 5.69%.

In the case of `CCOc1ccc(NC(=O)c2ccn(C)n2)cc1`, the “% Inhibition @ 10 uM” value is listed as -1.36%.

As to `O=c1cccc2n1C[C@H]1C[C@@H]2CN(Cc2ccc(O)cc2)C1`, the “% Inhibition @ 10 uM” value is recorded as -2.48%.

With `O=C(CSCc1cnn(-c2ccccc2)c1-n1cccc1)N1CCCC1`, the “% Inhibition @ 10 uM” value is -5.15%.

`Cc1nnc2c3ccccc3nc(N3CCN(Cc4ccccc4)CC3)n12`: the “% Inhibition @ 10 uM” value came to 0.882%.

In the case of `Cc1nn(CC(=O)NCCCc2ccccc2)c(=O)c2cccn12`, the “% Inhibition @ 10 uM” value is listed as -5.27%.

With `CC(C)n1cc(/C=C2/SC(=O)N(CC(=O)N3CCOCC3)C2=O)c2ccccc21`, the “% Inhibition @ 10 uM” value is on record as -4.52%.

Regarding `Cc1nn(Cc2ccccc2)c(C)c1[N+](=O)[O-]`, the “% Inhibition @ 10 uM” value was 0.989%.

Regarding `CCN1C(=O)/C(=C\c2ccc(F)cc2)N=C1SCC(=O)NCc1ccccc1`, the “% Inhibition @ 10 uM” value is on record as 2.68%.

`CC(C)=CCCC(C)N1CC23C=CC(O2)C(C(=O)O)C3C1=O` (centres unmarked): the “% Inhibition @ 10 uM” value is -6.6%.

As for `O=C(Cn1ncc2c3ccccc3n(Cc3ccccc3)c2c1=O)NCc1cccnc1`, the “% Inhibition @ 10 uM” value is listed as -3.35%.

`COC(=O)c1ccc2c(c1)C(C)(C)C(/C=C/c1ccc3c(c1)OCO3)=[N+]2C`: the “% Inhibition @ 10 uM” value is 2.04%.

For the compound `CCn1c(C)cc(/C=C2\SC(=O)N(CC(=O)Nc3ccc(C)cc3)C2=O)c1C`, the “% Inhibition @ 10 uM” value was -1.46%.

On to `Cc1oc2ncnc(NCC(C)C)c2c1C(=O)O`, for which the “% Inhibition @ 10 uM” value came out at 2.74%.

As to `O=C(NCc1ccccn1)c1nnc(-c2ccc3c(c2)OCO3)o1`, the “% Inhibition @ 10 uM” value is recorded as -1.38%.

On to `CN(C)CCN(Cc1ccccc1)C(=O)Cc1noc2ccccc12`, for which the “% Inhibition @ 10 uM” value is recorded as -0.788%.
